PubChem BioAssay AID2546 (National Center for Advancing Translational Sciences (NCATS), 2010)
Out of some 310,000 compounds screened, about 11,000 (3.5%) were called active. Inconclusive means that the source gave no clear call. Such entries were picked first, then a sample of the others. The call rests on the fitted dose curve; in most records, active means well fitted inhibition curve with a large enough effect; inconclusive means small, poorly fitted or top-dose-only effect, or effect the other way; inactive means flat fitted curve, though single readings scatter. Potencies of inconclusive entries are left out as doubtful fits. The source holds several records for some structures; these can differ, active in one and inactive in another.

Assay: VP16 counterscreen qHTS for inhibitors of ROR gamma transcriptional activity;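 further: Gal4-VP16 expression switched on by copper sulfate through the metallothionein promoter; nearly all actives have a fitted effect of over 50% in size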
Settings: Drosophila S2 Gal4-VP16 UAS-luciferase, luminescence, 20 h; activity, negative = inhibition: at 53.6 µM (top of the series)
On the % scale 0 is the no-effect control and ±100 the full control effect; potency means the concentration at half of the fitted maximal effect; tags describe the fitted curve by direction and shape.

SMILES	Potency	activity, negative = inhibition
O=C(O)c1cccc(N2C(=O)Nc3ccccc3N2O)c1	inconclusive [activator, single point]	
Cn1c(NC(=O)c2cccnc2)nc2ccccc21	inactive	
NNC(=S)Nc1cccc(Cl)c1	inconclusive [inhibitor, single point]	
CC[C@]1(O)C[C@@H]2CN(CCc3c([nH]c4ccccc34)[C@](C(=O)OC)(c3cc4c(cc3OC)N(C)[C@H]3[C@](O)(C(=O)OC)[C@@H](C(=O)OC)[C@@]5(CC)C=CCN6CC[C@@]43[C@@H]65)C2)C1	inconclusive [inhibitor, single point]	
CCOC(=O)C1CCN(C(=O)/C=C/c2ccc3c(c2)OCO3)CC1	inactive	
Cc1nnc(SC(C(=O)Nc2ccc(Cl)c([N+](=O)[O-])c2)c2ccccc2)[nH]c1=O (stereo unspecified)	inactive	
CN(CC(=O)Nc1ccc(N2CCOCC2)cc1)C(=O)CC(c1ccccc1)c1ccccc1		inactive: -0.496% [at 10 µM]
O=C(CNc1ccc(Br)cc1)c1ccc(O)cc1	inconclusive [inhibitor, partial curve]	
O=C(/C=C/Nc1cccc(F)c1)c1ccco1	inconclusive [inhibitor, single point]	
O=c1c2ccccc2sn1-c1nccs1	inconclusive [inhibitor, single point]	
O=[N+]([O-])c1cccc(-c2cn(-c3ccccc3)c(=S)[nH]2)c1	active: 11.2 µM	
CCn1c(NC(C)=O)nc2ccccc21	inconclusive [inhibitor, single point]	
O=C(CCn1c(=O)[nH]c2ccccc2c1=O)NCCCN1CCN(c2cccc(Cl)c2)CC1	inconclusive [inhibitor, single point]	
Nc1ncc(-c2ccccc2)c(-c2ccc(O)cc2O)n1	inactive	
CN1CCN(C2=C(NS(=O)(=O)c3ccccc3)C(=O)c3ccccc3C2=O)CC1	active: 12.6 µM	
O=C(Cc1ccc(Cl)cc1)N/N=C1\CCCc2ccccc21	inconclusive [inhibitor, partial curve]	
O=S(=O)([N-]c1nc2ccccc2nc1-n1cc[n+](Cc2ccccc2)c1)c1ccccc1	inactive	
O=S(=O)(Nc1cc2nc3ccccc3nc2n1Cc1ccccc1)c1ccc(Cl)cc1	inconclusive [inhibitor, single point]	
Cc1cc(=O)oc2cc(OCC(=O)NCCCN3CCOCC3)ccc12	inactive	
O=C(NC(=S)NC1C2CC3CC(C2)CC1C3)c1ccccc1 (stereo unspecified)	active: 1.78 µM	
CC(C)Oc1ccccc1C1CC(=O)Nc2cc3c(cc21)OCCO3 (stereo unspecified)	inconclusive [inhibitor, single point]	
O=C(NC(=S)NC(=O)c1ccccc1F)c1ccccc1F	active: 5.62 µM	
O=C(N/N=C/c1cn(-c2ccccc2)nc1-c1cccnc1)c1ccc(F)cc1	active: 3.98 µM	

SMILES	Potency	activity, negative = inhibition
Cc1nc(SCc2nc3ccccc3[nH]2)c2oc3ccccc3c2n1	inconclusive [inhibitor, single point]	
CCn1c(=S)[nH]c2sc3c(c2c1=O)CCCCC3	active: 1.12 µM	
Cc1cccc(NCc2nc(SCC(N)=O)n[nH]2)c1	inactive	
COc1ccc(-c2csc(NC(=O)c3ccoc3C)n2)cc1	inconclusive [activator, partial curve, poor fit]	
NNc1nc2c(F)cccc2s1	inconclusive [inhibitor, single point]	
COc1ccc(N=c2oc3cc(O)ccc3cc2C(=O)NCC2CCCO2)cc1 (stereo unspecified)	inconclusive [inhibitor, single point]	
Cc1ccc(C(=O)Nc2ccccc2N2CCCCC2)cc1[N+](=O)[O-]	inactive	
COc1ccc2cc(C(=O)Nc3ccc(Cl)cc3)sc(=O)c2c1OC	inconclusive [inhibitor, single point]	
Cc1nnc2n(Cc3ccccc3)c(=O)c3c4c(sc3n12)CCCC4	inconclusive [inhibitor, single point]	
O=C(N/N=C/c1cn(-c2ccccc2)nc1-c1cccs1)c1ccncc1	active: 2.24 µM	
CN(C)S(=O)(=O)N1CCN(CC(O)COc2ccc3cc(Br)ccc3c2)CC1 (stereo unspecified)	inactive	
C[C@@H](c1ccccc1)N1C(=O)[C@H]2[C@H]3[C@H](O)[C@H](O)C/C(=N/NC(=O)OCc4ccccc4)[C@@H]3CC[C@@H]2C1=O		inactive: -2.35% [at 10 µM]
C=CCN(CC=C)C(=S)NC(=O)c1ccc(C)c(Br)c1	active: 0.126 µM	
CCCC[C@@H]1C[C@H]1[C@@H](NP(=O)(c1ccccc1)c1ccccc1)c1ccccc1OC	inconclusive [inhibitor, single point]	
CCn1c(=O)c(C(=O)NCc2ccccc2OC)c(O)c2ccccc21	inconclusive [inhibitor, single point]	
COc1ccc(C(=O)/C=C/c2cccnc2)c(OC)c1	inconclusive [inhibitor, single point]	
CCc1ccc(/C=C(\C)C(=O)c2c(C)cc(C)[nH]c2=O)cc1	inconclusive [inhibitor, partial curve]	
c1ccc(N2CCN(Cc3cnc(N4CCOCC4)s3)CC2)cc1	inactive	
C=C1CC[C@H](O)C/C1=C/C=C1\CCC[C@]2(C)[C@@H]([C@H](C)CCCC(C)(C)O)CC[C@@H]12	active: 11.2 µM	
COc1cccc(/C=N/NC(=O)CNC(=O)C(c2ccccc2)c2ccccc2)c1O	inconclusive [inhibitor, single point]	
c1ccc2c(c1)CC/C2=N/Nc1nc2ccccc2[nH]1	active: 5.62 µM	
O=[N+]([O-])c1cc([N+](=O)[O-])c2nonc2c1Nc1ccc(O)cc1	active: 12.6 µM	
CC(C)CCNC(=O)CN(C(=O)CCC(=O)Nc1nccs1)C1CCCCC1	inconclusive [inhibitor, full curve, poor fit]	
